2 proteins from PMC11601504 (bioRxiv, 2024) can be followed below.

This data set deals with the molecule itself. Nature of the data set: negative-stain electron microscopy.

By stoichiometry N is commonly meant the number of molecules, sites or subunits per partner or assembly.

B1: Thorase R304A ([…]) (enzyme)
chain: not shown
As to B1, the binding result is on record as “binds”.

B2: Thorase E193Q ([…]) (enzyme)
chain: not shown
For the protein B2, the “stoichiometry N” value is 6.
